One test deals with HSkMC. In words: cytotoxicity call (relative viability < 0.9). The settings on record: 10 µM.
Another test concerns HepG2. Description: cytotoxicity call (relative viability < 0.9). The settings on record: 10 µM.
In the next test the test system is S. aureus RN4220. Description: growth inhibition call (relative growth <= 0.2). The settings on record: 50 µM.

The list shows a part of the results.

In the case of `Cc1ccc(S(=O)(=O)N(C)C[C@H]2OCCCC[C@@H](C)Oc3ccc(NC(=O)Cc4ccccc4)cc3C(=O)N([C@H](C)CO)C[C@@H]2C)cc1`, the cytotoxicity call in the test on HSkMC and in the test on HepG2 was “inactive” throughout. The growth inhibition call with S. aureus RN4220 is “inactive”.

As for `CC(C)NC(=O)N(C)C[C@@H]1Oc2c(NS(=O)(=O)c3ccccc3)cccc2C(=O)N([C@@H](C)CO)C[C@@H]1C`, the cytotoxicity call in the test on HSkMC and in the test on HepG2 was “inactive” in each case. The growth inhibition call in the test on S. aureus RN4220 was “inactive”.

`Cc1noc(C)c1NC(=O)N(C)C[C@@H]1OCCCC[C@@H](C)Oc2ccc(NS(=O)(=O)c3ccc(Cl)cc3)cc2C(=O)N([C@@H](C)CO)C[C@H]1C`: the cytotoxicity call in the test on HSkMC and with HepG2 was “inactive” throughout. Besides, the growth inhibition call in the test on S. aureus RN4220 was “inactive”.

With `C[C@@H]1CN([C@H](C)CO)C(=O)c2ccccc2-c2ccccc2CO[C@@H]1CN(C)Cc1cccc(C(F)(F)F)c1`, the cytotoxicity call in the test on HSkMC and in the test on HepG2 was “inactive” throughout. For the same compound, the growth inhibition call in the test with S. aureus RN4220 was “inactive”.

For `C[C@@H]1CN([C@H](C)CO)C(=O)c2cc(NC(=O)Nc3ccc4c(c3)OCO4)ccc2O[C@@H]1CN(C)Cc1ccc(C(F)(F)F)cc1`, the cytotoxicity call in the test with HSkMC and in the test on HepG2 was “active” each time. Also, in the test with S. aureus RN4220, the growth inhibition call was “inactive”.

In the case of `O=C(C[C@H]1C[C@@H]2c3cc(NS(=O)(=O)c4ccc(F)cc4)ccc3O[C@@H]2[C@@H](CO)O1)NCc1ccccc1F`, the cytotoxicity call in the test with HSkMC and in the test with HepG2 was “inactive” in each case. Further, in the test with S. aureus RN4220, the growth inhibition call was “inactive”.

For `C[C@@H]1CN([C@@H](C)CO)C(=O)c2cccc(NS(=O)(=O)c3cccs3)c2O[C@@H]1CN(C)S(=O)(=O)c1cn(C)cn1`, the cytotoxicity call in the test on HSkMC and in the test with HepG2 was “inactive” each time. For the same compound, the growth inhibition call in the test on S. aureus RN4220 was “inactive”.

`C[C@H](NCc1ccc(OCC(N)=O)cc1)C(N)=O`: the cytotoxicity call in the test on HSkMC and with HepG2 was “inactive” in each case. Further, the growth inhibition call with S. aureus RN4220 is “inactive”.

On to `NCCN1CCC(c2cccs2)CC1`, for which the cytotoxicity call in the test on HSkMC and with HepG2 was “inactive” in each case. The growth inhibition call in the test on S. aureus RN4220 was “inactive”.

As to `C[C@H]1CN([C@@H](C)CO)C(=O)Cc2cc(NC(=O)Nc3ccc4c(c3)OCO4)ccc2O[C@@H]1CN(C)C(=O)Nc1ccc(C(F)(F)F)cc1`, the cytotoxicity call in the test with HSkMC and with HepG2 was “inactive” each time. Further, the growth inhibition call in the test on S. aureus RN4220 was “inactive”.

As to `C[C@H](CO)N1C[C@H](C)[C@@H](CN(C)S(=O)(=O)c2ccccc2)OCCCC[C@H](C)Oc2ccc(NC(=O)Nc3ccc(F)cc3)cc2C1=O`, the cytotoxicity call in the test on HSkMC and with HepG2 was “inactive” each time. Also, the growth inhibition call with S. aureus RN4220 was “inactive”.

Turning to `C[C@@H]1CN([C@H](C)CO)C(=O)Cc2cc(NS(=O)(=O)c3ccc(Cl)cc3)ccc2O[C@H]1CN(C)S(=O)(=O)c1cn(C)cn1`, the cytotoxicity call in the test with HSkMC and with HepG2 was “inactive” each time. For the same compound, the growth inhibition call in the test on S. aureus RN4220 is “inactive”.

In the case of `Cc1noc(C)c1NC(=O)N(C)C[C@H]1OCCCC[C@H](C)Oc2ccc(NC(=O)C3CCCCC3)cc2C(=O)N([C@@H](C)CO)C[C@H]1C`, the cytotoxicity call in the test with HSkMC and in the test with HepG2 was “inactive” in each case. Besides, the growth inhibition call in the test on S. aureus RN4220 is “inactive”.

For `C[C@@H]1CN([C@@H](C)CO)C(=O)c2cc(NC(=O)Nc3cccc4ccccc34)ccc2O[C@@H](C)CCCCO[C@H]1CN(C)C(=O)NC1CCCCC1`, the cytotoxicity call with HSkMC and in the test on HepG2 was “inactive” each time. For the same compound, in the test on S. aureus RN4220, the growth inhibition call was “inactive”.

`CC(=O)N[C@@H]1[C@@H](O)[C@H](O)[C@@H](CO)O[C@H]1O`: the cytotoxicity call in the test with HSkMC and with HepG2 was “inactive” throughout. Also, the growth inhibition call in the test with S. aureus RN4220 is “inactive”.

With `COc1ccc(NC(=O)Nc2ccc3c(c2)C(=O)N([C@H](C)CO)C[C@H](C)[C@@H](CN(C)Cc2ccc4c(c2)OCO4)OCCCC[C@@H](C)O3)cc1`, the cytotoxicity call in the test on HSkMC and with HepG2 was “inactive” in each case. For the same compound, in the test with S. aureus RN4220, the growth inhibition call was “inactive”.

For the compound `CC(C)(C)OC(=O)NC(=NCCCn1cc(-c2cccc(/C=C/C(=O)NO)c2)nn1)NC(=O)OC(C)(C)C`, the cytotoxicity call in the test on HSkMC and with HepG2 was “inactive” in each case. In addition, the growth inhibition call with S. aureus RN4220 was “inactive”.

Take `Cc1ccc(S(=O)(=O)Nc2ccc3c(c2)CC(=O)N([C@@H](C)CO)C[C@H](C)[C@H](CN(C)C(=O)Nc2cccc4ccccc24)O3)cc1`: the cytotoxicity call in the test on HSkMC and with HepG2 was “inactive” in each case. In addition, in the test on S. aureus RN4220, the growth inhibition call was “inactive”.

As for `COc1ccccc1-c1cnc2c(c1)C(=O)N([C@@H](C)CO)C[C@@H](C)[C@H](CN(C)C(=O)c1ccncc1)O2`, the cytotoxicity call in the test with HSkMC and in the test with HepG2 was “inactive” in each case. Further, in the test on S. aureus RN4220, the growth inhibition call is “inactive”.

As for `COCCNC(=O)C[C@@H]1CC[C@H]2[C@@H](COC[C@H](O)CN2S(=O)(=O)c2ccccc2C)O1`, the cytotoxicity call in the test on HSkMC and in the test with HepG2 was “inactive” each time. Also, the growth inhibition call in the test on S. aureus RN4220 was “inactive”.

As to `C=C1CC2C3C=C(C)C4=CC(=O)CCC4(C)C3CCC2(C)C1(OC(C)=O)C(C)=O` (centres undefined), the cytotoxicity call in the test on HSkMC and in the test on HepG2 was “inactive” in each case. In the test with S. aureus RN4220, the growth inhibition call is “inactive”.

Take `C[C@@H]1CN([C@@H](C)CO)S(=O)(=O)c2ccc(-c3cncnc3)cc2O[C@H]1CN(C)C(=O)Cc1ccccc1`: the cytotoxicity call in the test on HSkMC and with HepG2 was “inactive” in each case. Besides, the growth inhibition call in the test on S. aureus RN4220 is “inactive”.

In the case of `COc1ccc(S(=O)(=O)Nc2ccc3c(c2)C(=O)N([C@@H](C)CO)C[C@H](C)[C@H](CN(C)S(=O)(=O)c2ccc(OC)cc2)O3)cc1`, the cytotoxicity call in the test with HSkMC and in the test with HepG2 was “inactive” in each case. In addition, the growth inhibition call in the test with S. aureus RN4220 was “inactive”.

Turning to `Cc1ccc(-c2cnc3c(c2)C(=O)N([C@H](C)CO)C[C@@H](C)[C@H](CN(C)C(=O)Cc2ccncc2)O3)cc1`, the cytotoxicity call with HSkMC and with HepG2 was “inactive” in each case. Further, the growth inhibition call in the test with S. aureus RN4220 is “inactive”.

Regarding `C[C@@H]1CN([C@H](C)CO)C(=O)c2cc(NC(=O)Cc3ccccc3)ccc2O[C@@H](C)CCCCO[C@H]1CN(C)Cc1ccc(Cl)c(Cl)c1`, the cytotoxicity call in the test on HSkMC and with HepG2 was “active” throughout. Further, the growth inhibition call in the test with S. aureus RN4220 is “inactive”.

In the case of `C[C@@H]1CN([C@@H](C)CO)C(=O)c2cccc(NC(=O)c3ccc(-c4nccs4)cc3)c2O[C@H]1CN(C)S(=O)(=O)c1ccc(Cl)cc1`, the cytotoxicity call in the test on HSkMC (human skeletal muscle cells) and in the test with HepG2 was “inactive” each time. In addition, the growth inhibition call in the test with S. aureus RN4220 was “inactive”.

With `NS(=O)(=O)c1ccc(CCn2ccn(CC(=O)NCCC3=CCCCC3)c(=O)c2=O)cc1`, the cytotoxicity call with HSkMC and in the test on HepG2 was “inactive” in each case. In addition, the growth inhibition call in the test with S. aureus RN4220 is “inactive”.

Consider `O=C(C[C@H]1CC=CCCC(=O)OCCNC1=O)NCCO`, for which the cytotoxicity call in the test with HSkMC and with HepG2 was “inactive” each time. Besides, in the test on S. aureus RN4220, the growth inhibition call was “inactive”.

The values above are taken from the antibiotic and cytotoxicity screens of Wong et al. (2023).
